The source of these data is patent US20240024498A1 (JIANGSU HENGRUI PHARMACEUTICALS, published 2024).

Test [1] addresses human Claudin18.2 (human). In words: cell-based or functional assay.
The target of test [2] is T1, human Claudin18.2 (human).
T1 construct: also called hClaudin18.2; huClaudin18.2
In words: cell-based ELISA (absorbance at 450 nm) on fixed NUGC4 cells stably expressing Claudin18.2. As to the method: (§1) Cell-based ELISA assay was used to test the binding properties of the Claudin18.2 antibodies. The stably transfected Claudin18.2-expressing NUGC4 cells were cultured in a 96-well cell plate (Corning, 3599). When growing at 90% density, the cells were immobilized with 4% paraformaldehyde for 1 h. The plate was washed 3 times with PBST buffer (pH 7.4 PBS containing 0.05% Tween-20), and a PBS-diluted 5% skim milk (powdered skim milk from Brightdairy) blocking solution was added at 200 μL/well. The plate was incubated in a 37° C. incubator for 2.5 h or was let stand at 4° C. overnight (16-18 h) for blocking. After blocking, the blocking solution was removed. The plate was washed 3 times with the PBST buffer, and then a test antibody that was diluted with a sample diluent (pH 7.4 PBS containing 1% skim milk) to different concentrations was added at 50 μL/well. The plate was incubated in a 37° C. incubator for 2 h. […] The plate was incubated at 37° C. for 1 h. The plate was washed 6 times with PBST, and then TMB chromogenic substrate (KPL, 52-00-03) was added at 50 µL/well. The plate was incubated at room temperature for 10-15 min, and the reaction was terminated by adding 1 M H₂SO₄ at 50 μL/well. The absorbance at 450 nm was read using an MD Versa Max™ microplate reader, and the binding EC50 value of the Claudin18.2 antibody to Claudin18.2 was calculated.

The target in test [3] is T1, human Claudin18.2. The test is described as follows: cell-based ELISA on fixed NUGC4 cells stably expressing Claudin18.2. The method, then:
as §1

For test [4], the target named is T1, human Claudin18.2. The test is described as follows: cell-based or functional assay. This is another data set of the same source.
Test [5] addresses T1, human Claudin18.2. The test is described as follows: flow cytometry on HEK293/hClaudin18.2 cells, Scatchard plot. As to the method: On the day of experiment, HEK293/hClaudin18.2 cells were collected into a U-bottomed 96-well plate at 1×10⁵ to 2×10⁵ cells per well. A human Claudin18.2 antibody that was 2× diluted serially (12 concentration points) from an initial concentration of 5 μg/mL was added, and the plate was incubated at 4° C. for 1 h. IMAB362 was used as a positive control, and a negative control with no antibody was also provided. The antibody was removed by centrifugation, and FITC anti-human IgG Fc antibody (200×) was added at 100 μL/well. The plate was incubated in the dark at 4° C. for 30 min and washed twice with PBS+2% FBS before flow cytometry analysis. BD FACS CantoII was started and preheated, and then the BD FACSDiva software was run to start a new experiment. […] The samples in the U-bottomed 96-well plate were tested at the saved voltage, and data were recorded. The experimental data were analyzed using Flowjo software to obtain a Geo mean, and an MESF-Geo Mean standard curve was fit according to the instructions for Quantum™ FITC-5 MESF Kit. The molar concentration of the human Claudin18.2 antibody bound to HEK293/hClaudin18.2 cells and the free antibody concentration were calculated according to the concentration fluorescence value of the FITC anti-human IgG Fc antibody, and the Bmax and the dissociation constant KD of the antibody were calculated through Scatchard plots.

Where a chain is given by its changes, count along the chain named.

B1: ADC-1 (antibody, human IgG1, kappa)
heavy: EVQLVQSGAEVKKPGASVKVSCKASGYTFTSYWMHWVRQAPGQRLEWMGMIHPNSGSTNYNEKFKGRVTITRDTSASTAYMELSSLRSEDTAVYYCARLKTGNSFDYWGQGTTVTVSS[… human IgG1 constant region …]
light: DIVLTQSPDSLAVSLGERATINCKSSQSLLNSGNQKNYLTWYQQKPGQPPKLLIYWASTRESGVPDRFSGSGSGTDFTLTISSLQAEDVAVYYCQNAYTYPFTFGQGTKLEIKRTVAAPSVFIFPPSDEQLKSGTASVVCLLNNFYPREAKVQWKVDNALQSGNSQESVTEQDSKDSTYSLSSTLTLSKADYEKHKVYACEVTHQGLSSPVTKSFNRGEC
modifications: compound 9-A coupled to sulfhydryl groups after TCEP reduction; mean drug loading n=6.8 per antibody; positions not given
For the molecule B1, in the test with human Claudin18.2 [1], the “in vitro cell killing EC50, NUGC4-claudin18.2 high expression cells (CellTiter-Glo)” value turned out to be 1.3 nM; the “in vitro cell killing EC50, NUGC4-claudin18.2 moderate expression cells (CellTiter-Glo)” value came to 23.6 nM; the “in vitro cell killing Emax, NUGC4-claudin18.2 high expression cells (CellTiter-Glo)” value was 91.5; the “in vitro cell killing Emax, NUGC4-claudin18.2 low expression cells (CellTiter-Glo)” value amounted to 66.7.

B2: h1901-6 (antibody, human IgG1, kappa)
heavy: EVQLVESGGGLVQPGGSLRLSCAASGFTFSDYGIHWVRQAPGKGLEWVAYISRGSSTIYYADTVKGRFTISRDNAKNSLYLQMTSLRAEDTAVYYCARGGYDTRNAMDYWGQGTTVTVSS[… human IgG1 constant region …]
light: B1 light with L4M, N22S, T40A, W56G, E61A, A97D, Y98L, T99Y, F102L
notes: Humanized antibody of mAb1901, L2 + H2, human IgG1/kappa
The molecule B2 had an Emax with human Claudin18.2 [2] of 0.937. The molecule further registered an EC50 in the test with human Claudin18.2 [3] of 0.091 nM.

B3: ADC-6 (antibody, human IgG1, kappa)
heavy: B1 heavy
light: B1 light
modifications: compound 9-A coupled to sulfhydryl groups after TCEP reduction; mean drug loading n=2.69 per antibody; positions not given
For the molecule B3, in the test with human Claudin18.2 [1], the “in vitro cell killing EC50, NUGC4-claudin18.2 high expression cells (CellTiter-Glo)” value worked out at 11 nM; the “in vitro cell killing EC50, NUGC4-claudin18.2 low expression cells (CellTiter-Glo)” value was over 500 nM; the “in vitro cell killing Emax, NUGC4-claudin18.2 high expression cells (CellTiter-Glo)” value came to 78; the “in vitro cell killing Emax, NUGC4-claudin18.2 low expression cells (CellTiter-Glo)” value was found to be 45.2.

B4: ADC-7 (antibody, human IgG1, kappa)
heavy: B1 heavy
light: B1 light
modifications: compound 9-A coupled to sulfhydryl groups after TCEP reduction; mean drug loading n=4.25 per antibody; positions not given
Regarding B4, in the test with human Claudin18.2 [1], the “in vitro cell killing EC50, NUGC4-claudin18.2 high expression cells (CellTiter-Glo)” value came to 3.9 nM; the “in vitro cell killing EC50, NUGC4-claudin18.2 low expression cells (CellTiter-Glo)” value was 284 nM; the “in vitro cell killing Emax, NUGC4-claudin18.2 high expression cells (CellTiter-Glo)” value was 88.5; the “in vitro cell killing Emax, NUGC4-claudin18.2 low expression cells (CellTiter-Glo)” value came to 61.1.

B5: ADC-8 (antibody, human IgG1, kappa)
heavy: B1 heavy
light: B1 light
modifications: compound 9-A coupled to sulfhydryl groups after TCEP reduction; mean drug loading n=7.01 per antibody; positions not given
Turning to B5, in the test with human Claudin18.2 [1], the “in vitro cell killing EC50, NUGC4-claudin18.2 high expression cells (CellTiter-Glo)” value was determined as 1.3 nM; the “in vitro cell killing EC50, NUGC4-claudin18.2 low expression cells (CellTiter-Glo)” value was 154 nM; the “in vitro cell killing Emax, NUGC4-claudin18.2 high expression cells (CellTiter-Glo)” value was found to be 97.2; the “in vitro cell killing Emax, NUGC4-claudin18.2 low expression cells (CellTiter-Glo)” value came out at 66.7.

B6: h1902-6 (antibody, human IgG1, kappa)
heavy: B1 heavy with I70L, R72L, T74K
light: B1 light
notes: Humanized antibody of mAb1902, L12 + H12, human IgG1/kappa
Consider B6, for which the Emax with human Claudin18.2 [2] was 0.78. In addition, the EC50 in the test with human Claudin18.2 [3] is 0.141 nM.

B7: h1901-4 (antibody, human IgG1, kappa)
heavy: B2 heavy with I70M
light: B1 light with L4M, T40A, W56G, E61A, A97D, Y98L, T99Y, F102L
notes: Humanized antibody of mAb1901, L1 + H4, human IgG1/kappa
On to B7, for which the Emax with human Claudin18.2 [2] was 0.986. The EC50 with human Claudin18.2 [3] is 0.201 nM.

B8: h1902-9 (antibody, human IgG1, kappa)
heavy: B1 heavy
light: B1 light with N22S
notes: Humanized antibody of mAb1902, L13 + H11, human IgG1/kappa
On to B8, for which, in the test with human Claudin18.2 [2], the Emax is 0.75. In the test with human Claudin18.2 [3], a half-maximal response (EC50) required 0.137 nM.

B9: h1901-8 (antibody, human IgG1, kappa)
heavy: B2 heavy with I70M
light: B1 light with L4M, N22S, T40A, W56G, E61A, A97D, Y98L, T99Y, F102L
notes: Humanized antibody of mAb1901, L2 + H4, human IgG1/kappa
In the test with human Claudin18.2 [2], B9 registered an Emax of 1.05. Further, in the test with human Claudin18.2 [3], the EC50 was 0.091 nM.

B10: h1901-2 (antibody, human IgG1, kappa)
heavy: B2 heavy
light: B1 light with L4M, T40A, W56G, E61A, A97D, Y98L, T99Y, F102L
In the test with human Claudin18.2 [2], B10 gave an Emax of 1.04. Also, a half-maximal effect with human Claudin18.2 [3] (EC50) was put at 0.076 nM.

B11: h1902-8 (antibody, human IgG1, kappa)
heavy: B1 heavy with R38K, A40R, M48I, R67K, V68A, I70L, R72L, T74K
light: B1 light
notes: Humanized antibody of mAb1902, L12 + H14, human IgG1/kappa
As to B11, the Emax with human Claudin18.2 [2] came out at 0.89. The same molecule showed an EC50 in the test with human Claudin18.2 [3] of 0.132 nM.

B12: h1901-3 (antibody, human IgG1, kappa)
heavy: B2 heavy with V48I
light: B1 light with L4M, T40A, W56G, E61A, A97D, Y98L, T99Y, F102L
notes: Humanized antibody of mAb1901, L1 + H3, human IgG1/kappa
The molecule B12 displayed an Emax in the test with human Claudin18.2 [2] of 1.11. In the test with human Claudin18.2 [3], this molecule displayed an EC50 of 0.22 nM.

B13: h1902-5 (antibody, human IgG1, kappa)
heavy: B1 heavy
light: B1 light
notes: Humanized antibody of mAb1902, L12 + H11, human IgG1/kappa
With B13, in the test with human Claudin18.2 [2], the Emax was determined as 0.9. Besides, in the test with human Claudin18.2 [4], the “ADCC effect, IC50 (FcrR3A-V158-NFAT-RE-Jurkat reporter; NUGC4 cells, high Claudin18.2 expression)” value was determined as 0.0322 mg/L; the “ADCC effect, IC50 (FcrR3A-V158-NFAT-RE-Jurkat reporter; NUGC4 cells, low Claudin18.2 expression)” value was found to be 0.0355 mg/L; the “ADCC effect, IC50 (FcrR3A-V158-NFAT-RE-Jurkat reporter; NUGC4 cells, moderate Claudin18.2 expression)” value worked out at 0.03 mg/L. In the test with human Claudin18.2 [3], this molecule gave an EC50 of 0.098 nM. In the test with human Claudin18.2 [5], this molecule came in with a Kd of 1.64 nM.

B14: h1902-1 (antibody, human IgG1, kappa)
heavy: B1 heavy
light: B1 light with L4M
Turning to B14, the Emax with human Claudin18.2 [2] is 0.87. This molecule had an EC50 in the test with human Claudin18.2 [3] of 0.113 nM.

B15: h1902-3 (antibody, human IgG1, kappa)
heavy: B1 heavy with M48I, R67K, V68A, I70L, R72L, T74K
light: B1 light with L4M
notes: Humanized antibody of mAb1902, L11 + H13, human IgG1/kappa
As for B15, the Emax with human Claudin18.2 [2] is 0.84. Also, the EC50 with human Claudin18.2 [3] was 0.175 nM.

B16: h1902-4 (antibody, human IgG1, kappa)
heavy: B1 heavy with R38K, A40R, M48I, R67K, V68A, I70L, R72L, T74K
light: B1 light with L4M
notes: Humanized antibody of mAb1902, L11 + H14, human IgG1/kappa
B16 had an Emax in the test with human Claudin18.2 [2] of 0.82. In the test with human Claudin18.2 [3], this molecule came in with an EC50 of 0.087 nM.

B17: h1902-10 (antibody, human IgG1, kappa)
heavy: B1 heavy with I70L, R72L, T74K
light: B1 light with N22S
notes: Humanized antibody of mAb1902, L13 + H12, human IgG1/kappa
B17 showed an Emax in the test with human Claudin18.2 [2] of 0.89. Moreover, a half-maximal effect with human Claudin18.2 [3] (EC50) was put at 0.133 nM.

B18: h1901-7 (antibody, human IgG1, kappa)
heavy: B2 heavy with V48I
light: B1 light with L4M, N22S, T40A, W56G, E61A, A97D, Y98L, T99Y, F102L
notes: Humanized antibody of mAb1901, L2 + H3, human IgG1/kappa
In the test with human Claudin18.2 [2], B18 registered an Emax of 0.921. Besides, the EC50 with human Claudin18.2 [3] amounted to 0.166 nM.

B19: h1902-2 (antibody, human IgG1, kappa)
heavy: B1 heavy with I70L, R72L, T74K
light: B1 light with L4M
notes: Humanized antibody of mAb1902, L11 + H12, human IgG1/kappa
B19 had an Emax in the test with human Claudin18.2 [2] of 0.88. Further, the EC50 with human Claudin18.2 [3] is 0.107 nM.

B20: h1902-7 (antibody, human IgG1, kappa)
heavy: B1 heavy with M48I, R67K, V68A, I70L, R72L, T74K
light: B1 light
notes: Humanized antibody of mAb1902, L12 + H13, human IgG1/kappa
For the molecule B20, in the test with human Claudin18.2 [2], the Emax came out at 0.75. This molecule had an EC50 with human Claudin18.2 [3] of 0.121 nM.
